Data on 85 compounds can be found in paper PMC4336329 (PLoS ONE, 2015).

In all, about 310,000 compounds went through this assay and about 14,000 (4.5%) showed an effect of 50% or more. Effects have a minus sign here. The list shows a part of the results.
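Also: peak tail current of the secondary pulse compared with the same well before compound.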

Chain of human ether-à-go-go-related gene (hERG) potassium channel (Q12809 whole entry, looked up): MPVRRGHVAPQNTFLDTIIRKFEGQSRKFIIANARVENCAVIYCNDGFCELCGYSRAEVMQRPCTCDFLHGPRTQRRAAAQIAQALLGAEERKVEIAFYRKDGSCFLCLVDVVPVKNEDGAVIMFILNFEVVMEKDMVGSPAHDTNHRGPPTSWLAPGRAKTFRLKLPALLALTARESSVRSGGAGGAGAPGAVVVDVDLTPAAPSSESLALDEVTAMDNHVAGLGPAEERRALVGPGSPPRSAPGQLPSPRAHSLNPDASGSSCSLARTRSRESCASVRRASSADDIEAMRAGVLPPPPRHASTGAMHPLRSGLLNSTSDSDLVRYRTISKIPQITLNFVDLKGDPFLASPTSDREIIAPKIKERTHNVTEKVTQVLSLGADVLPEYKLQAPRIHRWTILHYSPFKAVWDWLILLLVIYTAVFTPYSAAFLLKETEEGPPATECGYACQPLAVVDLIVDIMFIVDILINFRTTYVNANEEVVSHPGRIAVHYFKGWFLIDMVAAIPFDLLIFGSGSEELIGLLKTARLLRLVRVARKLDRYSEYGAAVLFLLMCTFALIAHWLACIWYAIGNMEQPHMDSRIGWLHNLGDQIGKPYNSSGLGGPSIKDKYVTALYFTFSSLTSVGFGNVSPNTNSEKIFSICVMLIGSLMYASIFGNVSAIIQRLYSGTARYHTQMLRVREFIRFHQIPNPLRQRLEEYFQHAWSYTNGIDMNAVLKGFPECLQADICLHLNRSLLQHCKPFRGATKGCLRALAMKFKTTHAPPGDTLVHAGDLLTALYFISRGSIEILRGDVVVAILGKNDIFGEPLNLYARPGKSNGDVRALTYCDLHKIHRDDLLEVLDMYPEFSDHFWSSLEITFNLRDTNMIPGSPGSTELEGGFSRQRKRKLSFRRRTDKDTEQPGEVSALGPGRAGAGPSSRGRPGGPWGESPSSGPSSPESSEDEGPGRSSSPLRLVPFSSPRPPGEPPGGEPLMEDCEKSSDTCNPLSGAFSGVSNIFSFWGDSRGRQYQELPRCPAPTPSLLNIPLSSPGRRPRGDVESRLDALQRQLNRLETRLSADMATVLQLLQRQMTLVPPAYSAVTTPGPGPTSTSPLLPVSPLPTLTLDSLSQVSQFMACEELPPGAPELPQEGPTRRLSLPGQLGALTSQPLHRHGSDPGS

This experiment has as its target human ether-à-go-go-related gene (hERG) potassium channel (human, UniProt Q12809). Kind of experiment: primary screen, population patch clamp on CHO cells stably expressing hERG.
On to `COc1cccc(NC(=O)c2ccc3c(c2)N(CC(=O)N2CCCCC2)C(=O)C(C)(C)O3)c1`, for which the “hERG current change (%, negative = inhibition) at 10uM” value was -6.71%. For the compound `Cc1ccc(NC(=O)c2cc(S(=O)(=O)N3CCc4ccccc43)cn2C)cc1C`, the “hERG current change (%, negative = inhibition) at 10uM” value was -11%. Turning to `Cc1ccc(S(=O)(=O)/C=C/c2ccccc2)cc1`, the “hERG current change (%, negative = inhibition) at 10uM” value is -9.53%. `CCOC(=O)C1=NN(C(=O)c2ccccc2)C(O)(c2ccc(C)cc2)C1` (stereo not shown): the “hERG current change (%, negative = inhibition) at 10uM” value is reported as -17.2%. For the compound `N#Cc1ccc(-c2csc(NC(=O)c3cc(-c4cccs4)nc4ccccc34)n2)cc1`, the “hERG current change (%, negative = inhibition) at 10uM” value turned out to be 2.46%. The value for `COC(=O)c1c(NC(=O)CN2CCN(S(=O)(=O)c3ccccc3[N+](=O)[O-])CC2)sc2c1CCC(C)C2` (stereo not shown) was 17.6%. The value for `COc1cc(SC)ccc1C(=O)Nc1ccc2c(c1)CCN2S(C)(=O)=O` was 9.93%; that for `Nc1nc(SCC(=O)Nc2ccc(Br)cc2F)n[nH]1` was 4.75%. The value for `NC(=O)c1c(NC(=O)CSc2nnc(-c3ccco3)n2-c2ccccc2)sc2c1CCC2` was -21.8%; that for `Cc1cc(/C=N/NC(=O)C(O)(c2ccccc2)c2ccccc2)c(C)n1-c1cccc(C(=O)O)c1` was 9.91%. Turning to `O=C(Nc1ccc(S(=O)(=O)N2CCOCC2)cc1)c1ccco1`, the “hERG current change (%, negative = inhibition) at 10uM” value is listed as -20.3%.

In the case of `Fc1ccc(-c2n[nH]c(=S)n2/N=C/c2c[nH]c3ccccc23)cc1`, the “hERG current change (%, negative = inhibition) at 10uM” value was -8.26%.

Take `CCOc1ccc(NC(=O)CCCNC(=O)Cn2cnc3sc(C)c(C)c3c2=O)cc1`: the “hERG current change (%, negative = inhibition) at 10uM” value came out at 14.9%.

Take `CCOC(=O)Cc1csc(NC(=O)c2cccc([N+](=O)[O-])c2)n1`: the “hERG current change (%, negative = inhibition) at 10uM” value is recorded as -29.7%. For `COc1cccc(/C=N/N2C(=O)NC3(CCCCC3)C2=O)c1O` the value was -7.53%; for `COc1cccc(CNCc2ccc(OC)c3ccccc23)c1OC.O=C(O)C(=O)O`, -28.9%; for `CC(C)c1ccc(N2C=Nc3ccc(C(C)C)cc3C2)cc1`, -9.45%. `Cc1onc(-c2ccccc2)c1-c1nnc(CN2CCN(S(=O)(=O)c3ccccc3F)CC2)o1`: the “hERG current change (%, negative = inhibition) at 10uM” value was -28.4%. `CCC(C)(C)C1CCc2[nH]nc(C(=O)NCc3ccc(OC)cc3)c2C1` (stereo not shown): the “hERG current change (%, negative = inhibition) at 10uM” value is listed as -0.24%. Consider `O=C(CCc1ccc(S(=O)(=O)N2CCOCC2)cc1)N/N=C/c1ccc(F)cc1F`, for which the “hERG current change (%, negative = inhibition) at 10uM” value was -13.7%.

For the compound `CC12CC3(C)CC(C)(C1)CC(C(=O)NC(=S)NC(C)(C)C)(C2)C3`, the “hERG current change (%, negative = inhibition) at 10uM” value is 13.3%.

On to `CCCSc1nnc(NC(=O)Nc2ccccc2OC)s1`, for which the “hERG current change (%, negative = inhibition) at 10uM” value is 16.6%.

With `COc1ccc(S(=O)(=O)N2CCOCC2)cc1NC(=O)CSc1nnc2c(n1)[nH]c1ccccc12`, the “hERG current change (%, negative = inhibition) at 10uM” value was -11.5%. As for `CC1=C(C(=O)N2CCCC(CCC(=O)NCc3ccc(F)c(F)c3)C2)OCCO1` (stereo not shown), the “hERG current change (%, negative = inhibition) at 10uM” value is on record as 3.36%.

In the case of `CCCNC(=O)c1ccccc1NS(=O)(=O)c1ccc(OC)c(OC)c1`, the “hERG current change (%, negative = inhibition) at 10uM” value amounted to 1.92%.

With `Oc1ccccc1-c1nc(NCC2CCCO2)c2ccccc2n1` (stereo not shown), the “hERG current change (%, negative = inhibition) at 10uM” value is given as 19%. For `O=C1c2ccccc2C(=O)N1c1cccc2ccccc12` the value was -3.28%; for `CC(=O)N1c2ccc(S(=O)(=O)N3CCCC(C(=O)Nc4ccc(C)cc4C)C3)cc2CC1C` (stereo not shown), 5.35%; for `COc1cccc(-c2nnc(NC(C)=O)o2)c1`, 4.78%. On to `Cc1cc(C)c[n+](CC(=O)c2ccc(C)c([N+](=O)[O-])c2)c1.[Br-]`, for which the “hERG current change (%, negative = inhibition) at 10uM” value is reported as -13.2%. The value for `Cc1c(O)c2ccccc2oc1=O` was -0.676%; that for `Cc1ccc(S(=O)(=O)NCC(=O)NC2CCCCCC2)cc1` was -10.8%. For `CCOC(=O)C(NC(C)=O)(N1CCOCC1)C(F)(F)F` (stereo not shown), the “hERG current change (%, negative = inhibition) at 10uM” value stood at 15.3%.

Regarding `CN(C)c1ccc(C(O)P(=O)(OCc2ccccc2)c2ccc(N(C)C)cc2)cc1` (stereo not shown), the “hERG current change (%, negative = inhibition) at 10uM” value stood at 15%. The value for `O=C(Nc1ccccc1C(=O)N1CCCC1)c1ccc(Cl)c([N+](=O)[O-])c1` was 3.66%; that for `O=C(Cc1ccc([N+](=O)[O-])cc1)Nc1cccc(C(F)(F)F)c1` was -29.3%; that for `O=C(COC(=O)Cc1cccs1)Nc1ccc(OC(F)(F)F)cc1` was 3.97%. The value for `Cc1ccccc1-n1c(SCC(=O)Nc2c(C)cccc2C)nc(O)cc1=O` was 11.7%; that for `CCOc1ccc2nc(SCC(=O)NCc3ccc(S(N)(=O)=O)cc3)sc2c1` was 1.18%. For `CC(=O)NCCC(=O)Nc1nc(-c2ccccc2Cl)cs1` the value was -9.76%; for `C=CCOC(=O)C1=C(C)NC(C)=C(C(=O)OCC=C)C1c1cn(-c2ccccc2)nc1-c1ccco1`, -1.68%. Take `Cl.O=C(Cc1ccccc1)NC1CCN(Cc2ccccc2)CC1`: the “hERG current change (%, negative = inhibition) at 10uM” value is listed as 1.21%. For the compound `CCCCn1c(SCC(N)=O)nnc1-c1ccco1`, the “hERG current change (%, negative = inhibition) at 10uM” value was found to be 15.3%. The value for `CCOC(=O)c1ccccc1NC(=O)CN(c1ccccc1C)S(C)(=O)=O` was -4.92%; that for `CCOC(=O)c1c(C)[nH]c(C(=O)COC(=O)C2(C)CC2(Cl)Cl)c1C` (stereo not shown) was -6.89%.

Take `Cc1ccc(C)n1-c1cccc(NC(=O)c2ccccc2)c1`: the “hERG current change (%, negative = inhibition) at 10uM” value is reported as -10.4%. Regarding `CCCn1c(N2CCN(Cc3ccc(Cl)cc3)CC2)nc2ccccc21.Cl`, the “hERG current change (%, negative = inhibition) at 10uM” value is on record as -69.8%. On to `CC(=O)N1CCC(N(C(=O)Nc2c(F)cccc2F)C(C)C)CC1`, for which the “hERG current change (%, negative = inhibition) at 10uM” value is recorded as 13.8%. `CC(C)C[C@H]1COCCS(=O)(=O)N1Cc1cccc(Cl)c1`: the “hERG current change (%, negative = inhibition) at 10uM” value is listed as -24%.

On to `CCOc1cc2c(cc1OCC)-n1cccc1C(c1ccc(OC(F)F)cc1)NC2.Cl` (stereo not shown), for which the “hERG current change (%, negative = inhibition) at 10uM” value is listed as -65.3%. Take `Cc1ccc(CSc2ccc(-c3cccs3)nn2)cc1`: the “hERG current change (%, negative = inhibition) at 10uM” value is -0.175%.

With `CSCCC(NC(=O)c1ccco1)C(=O)NCC(c1ccco1)N1CCCCC1` (stereo not shown), the “hERG current change (%, negative = inhibition) at 10uM” value was -11.3%. For `CCNC(=S)Nc1cccc(S(=O)(=O)NC2=NCCC2)c1` the value was 25.9%; for `Cc1c(C(=O)N2CCCC2)c(S(=O)(=O)Nc2cccc(Br)c2)c(C)n1C`, 6.99%; for `CCOC(=O)c1cccc(NC(=O)CCn2cccc2)c1`, -27.7%. For `CCOCCCNC(=O)c1c[nH]c2cc(C)ccc2c1=O` the value was -3.42%; for `Nc1ncnc2nc(SCC(=O)N3CCN(c4ccccc4)CC3)[nH]c12`, -6.47%; for `CCNC(=O)NC(=O)COC(=O)C1CSC2(C)CCC(=O)N12` (stereo not shown), 3.51%. Take `COc1ccccc1/C=C\C=N\NC(=O)CCn1nnc2ccccc21`: the “hERG current change (%, negative = inhibition) at 10uM” value was -3.44%. On to `CC(=O)N[C@@H](C)c1nc2ccccc2n1CCCN1CCN(c2nc(-c3ccc(C)cc3)cs2)CC1`, for which the “hERG current change (%, negative = inhibition) at 10uM” value is recorded as -56.2%. The value for `COc1ccc(-n2c(=S)[nH]c3sc4c(c3c2=O)CCN(C)C4)cc1` was 26.5%; that for `Cc1cc(C)n2nc(C(=O)Nc3ccn(Cc4ccccc4C)n3)cc2n1` was 12.2%; that for `CC1(C)CC(=O)C2=C(C1)NC(=O)C21C(C(=O)OC(C)(C)C)=C(N)Oc2ccc(Br)cc21` (stereo not shown) was -13.1%.

As for `O=C(O)CCCC(=O)N1CC(=O)Nc2ccccc21`, the “hERG current change (%, negative = inhibition) at 10uM” value is 4.5%. Take `O=C(Nc1ccc(N2CCOCC2)cc1)C1CC(=O)N(c2ccccc2)C1` (stereo not shown): the “hERG current change (%, negative = inhibition) at 10uM” value is reported as 0.539%. `COc1cc(CNC(=O)c2ccccc2NC(=O)C2=C(C)OCCS2)cc(OC)c1OC`: the “hERG current change (%, negative = inhibition) at 10uM” value is recorded as 9.03%. For `CCCCn1c(N)c(N(CCOC)C(=O)CSCc2ccccc2C)c(=O)[nH]c1=O` the value was -8.23%; for `Cc1nn(Cc2ccccc2)c(Cl)c1C(=O)NCc1ccc(C)n1C`, -22.1%. For `Cc1ccc(-c2cc(-c3ccco3)c3c(N)c(C(=O)NN)oc3n2)cc1` the value was 6.81%; for `O=C(/C=C/c1ccco1)N(Cc1cccc(F)c1)C1CCS(=O)(=O)C1` (stereo not shown), -29.3%.

As to `COc1cc(OC)c(OC)cc1CNC(=O)c1cc(S(=O)(=O)N2CCOCC2)ccc1F`, the “hERG current change (%, negative = inhibition) at 10uM” value is recorded as -9.79%. `COC(=O)CCC(NC(=O)c1cc(-c2ccc3c(c2)OCCO3)oc1C)C(=O)OC` (stereo not shown): the “hERG current change (%, negative = inhibition) at 10uM” value was 8.3%. Turning to `COc1ccc(C(=O)OCCCc2cc3ccccc3c(=O)o2)cc1`, the “hERG current change (%, negative = inhibition) at 10uM” value is recorded as -24.8%. The value for `Cc1cccc(NC(=O)c2ccccc2NC(=O)C(C)(C)C)n1` was -0.982%; that for `O=C(Oc1ccccc1)N1CCN(c2ccc(F)cc2)CC1` was -7.66%.

As for `Nc1nc(-c2ccc(Br)cc2)c(S(=O)(=O)c2ccccc2)s1`, the “hERG current change (%, negative = inhibition) at 10uM” value worked out at 0.913%.

On to `Cc1nn(-c2ccccc2)c(C)c1/C=N/NC(=O)CSc1nnc(-c2ccccc2)n1-c1ccc(Cl)cc1`, for which the “hERG current change (%, negative = inhibition) at 10uM” value amounted to 5.46%.

With `COc1ccc(-n2nc(C(=O)NCC(=O)NCc3cccc(F)c3)c3ccccc3c2=O)cc1Cl`, the “hERG current change (%, negative = inhibition) at 10uM” value is reported as -0.0515%.

`COCc1cc(CN2CCCC(C(=O)Nc3cccc(-n4cnnn4)c3)C2)ccc1OC` (stereo not shown): the “hERG current change (%, negative = inhibition) at 10uM” value was -6.58%.

For the compound `COc1ccc(C2=NOC(C(=O)NCc3ccco3)C2)cc1OC` (stereo not shown), the “hERG current change (%, negative = inhibition) at 10uM” value is on record as -9.78%.

Consider `Fc1ccc(N2CCN(Cc3cnc(Cl)s3)CC2)cc1`, for which the “hERG current change (%, negative = inhibition) at 10uM” value is -3.52%.

For the compound `COc1cccc(-n2sc3c(c2=S)-c2cc(OC)ccc2NC3(C)C)c1`, the “hERG current change (%, negative = inhibition) at 10uM” value is given as 2.45%. Consider `COc1ccc(CNC(=O)c2ccc(CS(=O)Cc3ccc(Cl)cc3)o2)cc1` (stereo not shown), for which the “hERG current change (%, negative = inhibition) at 10uM” value is recorded as -84.6%. The value for `Cc1ccc(C)c(C(=O)COC(=O)c2cccc(N3C(=O)c4c(C)nc5ccccc5c4C3=O)c2)c1` was 30.2%. The value for `COc1ccc(-c2c([C@H]3[C@H]4C=CC[C@@H](C)[C@@H]4C(=O)N3Cc3ccccc3)ccc3ccccc23)cc1OC` was 14.7%.
